Target: CtermHisTag-mEGFR Triple Mutant (R797S, L858R, T790M) (Homo sapiens, UniProt P00533, C797S/L858R/T790M)
Experiment: TR-FRET probe displacement, EGFR triple mutant
Settings: 1.25 nM EGFR, 100 nM probe, 30 mins room temperature

| IC50 | SMILES |
| --- | --- |
| 100 to 1000 nM | C#Cc1cc(=O)n(C2CCCC2)c2nc(Nc3cccc(N(C)[C@H]4CC[C@@H](CS(C)(=O)=O)CC4)c3)ncc12 [Example 204] |
| 100 to 1000 nM | C#Cc1cc(=O)n(C2CCCC2)c2nc(Nc3cccc(N(C)[C@H]4C[C@H](CS(C)(=O)=O)C4)c3)ncc12 [Example 205] |
| 100 to 1000 nM | C#Cc1cc(=O)n(C2CCCC2)c2nc(Nc3cccc(N(C)[C@H]4CC[C@H](CS(C)(=O)=O)CC4)c3)ncc12 [Example 206] |
| < 20 nM | C#Cc1cc(=O)n(C)c2nc(Nc3ccc(N4CCN(C)CC4)c(OCCC)c3)ncc12 [Example 207, 5-Ethynyl-8-methyl-2-((4-(4-methylpiperazin-1-yl)-3-propoxyphenyl)amino)pyrido[2,3-d]pyrimidin-7(8H)-one] |
| < 20 nM | C#Cc1cc(=O)n(C)c2nc(Nc3ccc(N4CCN(C)CC4)c(OC)c3)ncc12 [Example 208, 5-Ethynyl-2-((3-methoxy-4-(4-methylpiperazin-1-yl)phenyl)amino)-8-methylpyrido[2,3-d]pyrimidin-7(8H)-one] |
| 20 to 100 nM | C#Cc1cc(=O)n(C)c2nc(Nc3ccc(N4CCN(C)CC4)c(OCCC4CCCC4)c3)ncc12 [Example 209, 2-((3-(2-Cyclopentylethoxy)-4-(4-methylpiperazin-1-yl)phenyl)amino)-5-ethynyl-8-methylpyrido[2,3-d]pyrimidin-7(8H)-one] |
| 20 to 100 nM | C#Cc1cc(=O)n(Cc2ccn(C)n2)c2nc(Nc3ccc(N4CCN(C)CC4)c(OCCC4CCCC4)c3)ncc12 [Example 210, 2-((3-(2-Cyclopentylethoxy)-4-(4-methylpiperazin-1-yl)phenyl)amino)-5-ethynyl-8-((1-methyl-1H-pyrazol-3-yl)methyl)pyrido[2,3-d]pyrimidin-7(8H)-one] |
| 20 to 100 nM | C#Cc1cc(=O)n(C)c2nc(Nc3ccc(N4CCN(C)CC4)c(OCC4CCCC4)c3)ncc12 [Example 211, 2-((3-(Cyclopentylmethoxy)-4-(4-methylpiperazin-1-yl)phenyl)amino)-5-ethynyl-8-methylpyrido[2,3-d]pyrimidin-7(8H)-one] |
| 20 to 100 nM | C#Cc1cc(=O)n(C)c2nc(Nc3ccc(N4CCN(C)CC4)c(OCCCC4CCCC4)c3)ncc12 [Example 212, 2-((3-(3-Cyclopentylpropoxy)-4-(4-methylpiperazin-1-yl)phenyl)amino)-5-ethynyl-8-methylpyrido[2,3-d]pyrimidin-7(8H)-one] |
| 20 to 100 nM | C#Cc1cc(=O)n(C)c2nc(Nc3ccc(N4CCN(C)CC4)c(OCCC4CCCCC4)c3)ncc12 [Example 213, 2-((3-(2-Cyclohexylethoxy)-4-(4-methylpiperazin-1-yl)phenyl)amino)-5-ethynyl-8-methylpyrido[2,3-d]pyrimidin-7(8H)-one] |
| 20 to 100 nM | C#Cc1cc(=O)n(C)c2nc(Nc3ccc(N4CCN(C)CC4)c(OCCc4ccccc4)c3)ncc12 [Example 214, 5-Ethynyl-8-methyl-2-((4-(4-methylpiperazin-1-yl)-3-phenethoxyphenyl)amino)pyrido[2,3-d]pyrimidin-7(8H)-one] |
| < 20 nM | C#Cc1cc(=O)n(C)c2nc(Nc3ccc(N4CCN(C)CC4)c(OC4CCCC4)c3)ncc12 [Example 215, 2-((3-(Cyclopentyloxy)-4-(4-methylpiperazin-1-yl)phenyl)amino)-5-ethynyl-8-methylpyrido[2,3-d]pyrimidin-7(8H)-one] |
| 20 to 100 nM | C#Cc1cc(=O)n(C)c2nc(Nc3ccc(N4CCN(C)CC4)c(OCCC(C)C)c3)ncc12 [Example 216, 5-Ethynyl-2-((3-(isopentyloxy)-4-(4-methylpiperazin-1-yl)phenyl)amino)-8-methylpyrido[2,3-d]pyrimidin-7(8H)-one] |
| 20 to 100 nM | C#Cc1cc(=O)n(C)c2nc(Nc3ccc(N4CCN(C)CC4)c(NC(=O)CC4CCCC4)c3)ncc12 [Example 217, 2-Cyclopentyl-N-(5-((5-ethynyl-8-methyl-7-oxo-7,8-dihydropyrido[2,3-d]pyrimidin-2-yl)amino)-2-(4-methylpiperazin-1-yl)phenyl)acetamide] |
| 100 to 1000 nM | C#Cc1cc(=O)n(C)c2nc(Nc3ccc(N4CCN(C)CC4)c(S(=O)(=O)NCC4CCCC4)c3)ncc12 [Example 218] |

Second part, the molecule before the results:

| SMILES | IC50 |
| --- | --- |
| C#Cc1cc(=O)n(C2CCCC2)c2nc(Nc3cccc4c3CN(C)C4)ncc12 [Example 184, 8-Cyclopentyl-5-ethynyl-2-[(2-methvl-1,3-dihydroisoindol-4-yl)amino]pyrido[2,3-d]pyrimidin-7-one] | 1000 to 50000 nM |
| C#Cc1cc(=O)n(C2CCCC2)c2nc(Nc3cccc4c3CCN(C)C4)ncc12 [Example 185, 8-Cyclopentyl-5-ethynyl-2-[(2-methyl-3,4-dihydro-1H-isoquinolin-5-yl)amino]pyrido[2,3-d]pyrimidin-7-one] | 1000 to 50000 nM |
| C#Cc1cc(=O)n2c3nc(ncc13)Nc1cccc(c1)OCCC2 [Example 186, 1^5-ethynyl-1^7,1^8-dihydro-4-oxa-2-aza-1(2,8)-pyrido[2,3-d]pyrimidina-3(1,3)-benzenacycloheptaphan-1^7-one] | 1000 to 50000 nM |
| C#Cc1cc(=O)n2c3nc(ncc13)Nc1cccc(c1)OC/C=C\C2 [Example 187, (Z)-1^5-ethynyl-1^7,1^8-dihydro-4-oxa-2-aza-1(2,8)-pyrido[2,3-d]pyrimidina-3(1,3)-benzenacyclooctaphan-6-en-1^7-one] | 20 to 100 nM |
| C#Cc1cc(=O)n2c3nc(ncc13)Nc1ccc(N3CCN(C)CC3)c(c1)OC/C=C\C2 [Example 188, (Z)-1^5-ethynyl-3^4-(4-methylpiperazin-1-yl)-1^7,1^8-dihydro-4-oxa-2-aza-1(2,8)-pyrido[2,3-d]pyrimidina-3(1,3)-benzenacyclooctaphan-6-en-1^7-one] | < 20 nM |
| C#Cc1cc(=O)n2c3nc(ncc13)Nc1ccc(N3CCN(C)CC3)c(c1)OCCCC2 [Example 189, 1^5-ethynyl-3^4-(4-methylpiperazin-1-yl)-1^7,1^8-dihydro-4-oxa-2-aza-1(2,8)-pyrido[2,3-d]pyrimidina-3(1,3)-benzenacyclooctaphan-1^7-one] | < 20 nM |
| C#Cc1c(C)c(=O)n2c3nc(ncc13)Nc1cccc(c1)OC/C=C\C2 [Example 190, (Z)-1^5-ethynyl-1^6-methyl-1^7,1^8-dihydro-4-oxa-2-aza-1(2,8)-pyrido[2,3-d]pyrimidina-3(1,3)-benzenacyclooctaphan-6-en-1^7-one] | 100 to 1000 nM |
| C#Cc1c(C)c(=O)n2c3nc(ncc13)Nc1cccc(c1)OCCCC2 [Example 191, 1^5-ethynyl-1^6-methyl-1^7,1^8-dihydro-4-oxa-2-aza-1(2,8)-pyrido[2,3-d]pyrimidina-3(1,3)-benzenacyclooctaphan-1^7-one] | 20 to 100 nM |
| C#Cc1cc(=O)n2c3nc(ncc13)Nc1cccc(c1)OC[C@H]1CC[C@H](C1)C2 [Example 192, (5^1R,5^3S)-3^5-ethynyl-3^7,3^8-dihydro-7-oxa-2-aza-3(2,8)-pyrido[2,3-d]pyrimidina-1(1,3)-benzena-5(1,3)-cyclopentanacycloheptaphan-3^7-one] | 100 to 1000 nM |
| C#Cc1cc(=O)n2c3nc(ncc13)Nc1cccc(c1)OCCCC2 [Example 193, 1^5-Ethynyl-1^7,1^8-dihydro-4-oxa-2-aza-1(2,8)-pyrido[2,3-d]pyrimidina-3(1,3)-benzenacyclooctaphan-1^7-one] | 20 to 100 nM |
| C#Cc1c(C)c(=O)n2c3nc(ncc13)Nc1ccc(N3CCN(C)CC3)c(c1)OCCCC2 [Example 194, 1^5-Ethynyl-1^6-methyl-3^4-(4-methylpiperazin-1-yl)-1^7,1^8-dihydro-4-oxa-2-aza-1(2,8)-pyrido [2,3-d]pyrimidina-3(1,3)-benzenacyclooctaphan-1^7-one] | 20 to 100 nM |
| C#Cc1cc(=O)n2c3nc(ncc13)Nc1cccc(c1)COC/C=C\C2 [Example 195, (Z)-1^5-ethynyl-1^7,1^8-dihydro-5-oxa-2-aza-1(2,8)-pyrido[2,3-d]pyrimidina-3(1,3)-benzenacyclononaphan-7-en-1^7-one] | 20 to 100 nM |
| C#Cc1cc(=O)n2c3nc(ncc13)Nc1ccc(N3CCN(C)CC3)c(c1)COCCC2 [Example 196, 1^5-Ethynyl-34-(4-methylpiperazin-1-yl)-1^7, 1^8-dihydro-5-oxa-2-aza-1(2,8)-pyrido[2,3-d]pyrimidina-3(1,3)-benzenacyclooctaphan-1^7-one] | 1000 to 50000 nM |
| C#Cc1cc(=O)n2c3nc(ncc13)Nc1ccc(N3CCN(C)CC3)c(c1)CC(=O)NCC2 [Example 197, 1^5-Ethynyl-3^4-(4-methylpiperazin-1-yl)-1^7,1^8-dihydro-2,6-diaza-1(2,8)-pyrido[2,3-d]pyrimidina-3(1,3)-benzenacyclooctaphane-1^7,5-dione] | 100 to 1000 nM |
| C#Cc1cc(=O)n2c3nc(ncc13)Nc1ccc(N3CCN(C)CC3)c(c1)NCCCC2 [Example 198, 1^5-Ethynyl-3^4-(4-methylpiperazin-1-yl)-1^7, 1^8-dihydro-2,4-diaza-1(2,8)-pyrido[2,3-d]pyrimidina-3(1,3)-benzenacyclooctaphan-1^7-one] | 100 to 1000 nM |
| C#Cc1cc(=O)n2c3nc(ncc13)Nc1ccc(N3CCN(C)CC3)c(c1)CNCCC2 [Example 199, 1^5-Ethynyl-3^4-(4-methylpiperazin-1-yl)-1^7,1^8-dihydro-2,5-diaza-1(2,8)-pyrido[2,3-d]pyrimidina-3(1,3)-benzenacyclooctaphan-1^7-one] | 1000 to 50000 nM |
| C#Cc1cc(=O)n2c3nc(ncc13)Nc1ccc(N3CCN(C)CC3)c(c1)OCCCCC2 [Example 200, 1^5-Ethynyl-34-(4-methylpiperazin-1-yl)-1^7,1^8-dihydro-4-oxa-2-aza-1(2,8)-pyrido[2,3-d]pyrimidina-3(1,3)-benzenacyclononaphan-17-one] | < 20 nM |
| C#Cc1cc(=O)[nH]c2nc(Nc3ccc(N4CCN(C)CC4)c(CNC(=O)C=C)c3)ncc12 [Example 201] | < 20 nM |
| C#Cc1cc(=O)n(C2CCCC2)c2nc(Nc3ccccc3N3CCCC(CS(C)(=O)=O)C3)ncc12 (centres unmarked) [Example 202, 8-Cyclopentyl-5-ethynyl-2-({2-[3-(methanesulfonylmethyl)piperidin-1-yl]phenyl}amino)pyrido[2,3-d]pyrimidin-7-one] | 1000 to 50000 nM |
| C#Cc1cc(=O)n(C2CCCC2)c2nc(Nc3cccc(N(C)[C@H]4C[C@@H](CS(C)(=O)=O)C4)c3)ncc12 [Example 203] | 100 to 1000 nM |

Source: US20260137703A1, “2-AMINO-PYRIDO[2,3-D]PYRIMIDIN-7(8H)-ONE AND 7-AMINO-1-PYRIMIDO[4,5-D]PYRIMIDIN-2(1 H)-ONE DERIVATIVES AS EGFR INHIBITORS FOR THE TREATMENT OF CANCER” (Cancer Research Technology Limited, priority 2022, published 2026)
